According to EPA's CvTdb concentration-time database:
Further values from the same series stand in other lists.

Legend:
[1] = system: Rat; experiment: concentration in plasma after dosing; settings: 0.5 h; dosed: 2-Methyltetrahydrofuran; 30 mg/kg; oral; Female; F344
[2] = system: Rat; experiment: concentration in brain after dosing; settings: 8 min; dosed: 2-Methyltetrahydrofuran; 10 mg/kg; oral; Male; F344
[3] = system: Rat; experiment: concentration in plasma after dosing; settings: 10 min; dosed: 2-Methyltetrahydrofuran; 10 mg/kg; iv; Male; F344
[4] = system: Rat; experiment: concentration in brain after dosing; settings: 0.75 h; dosed: 2-Methyltetrahydrofuran; 400 mg/kg; oral; Female; Harlan Sprague Dawley
[5] = system: Rat; experiment: concentration in plasma after dosing; settings: 2 min; dosed: 2-Methyltetrahydrofuran; 30 mg/kg; oral; Female; F344
[6] = system: Rat; experiment: concentration in brain after dosing; settings: dosed: 2-Methyltetrahydrofuran
[7] = system: Rat; experiment: concentration in plasma after dosing; settings: 2 h; dosed: 2-Methyltetrahydrofuran; 10 mg/kg; oral; Female; F344
[8] = system: Rat; experiment: concentration in brain after dosing; settings: 0.25 h; dosed: 2-Methyltetrahydrofuran; 30 mg/kg; oral; Female; F344
[9] = system: Rat; experiment: concentration in plasma after dosing; settings: 5 min; dosed: 2-Methyltetrahydrofuran; 10 mg/kg; iv; Male; F344
[10] = system: Rat; experiment: concentration in brain after dosing; settings: 12 h; dosed: 2-Methyltetrahydrofuran; 400 mg/kg; oral; Male; F344
[11] = system: Rat; experiment: concentration in plasma after dosing; settings: 10 min; dosed: Bromochloroacetic acid; 10 mg/kg; iv; Male; F344
[12] = system: Rat; experiment: concentration in plasma after dosing; settings: dosed: Fluorotelomer alcohol 8+2, 160 mg/kg, oral, Female, Harlan Sprague Dawley
[13] = system: Rat; experiment: concentration in plasma after dosing; settings: 5 h; dosed: Pyridine; 200 mg/kg; oral; Female; Harlan Sprague Dawley
[14] = system: Rat; experiment: concentration in plasma after dosing; settings: 1 h; dosed: Pyridine; 200 mg/kg; oral; Female; F344
[15] = system: Rat; experiment: concentration in plasma after dosing; settings: dosed: Pyridine, 5 mg/kg, oral, Female, F344

CC1CCCO1 (stereo unspecified) [2-Methyltetrahydrofuran]
Settings | concentration in brain [µg/g] | concentration in plasma [ng/mL]
[1] | – | 19500
[2] | 2.15 | –
[3] | – | 10400
[4] | 158 | –
[5] | – | 7610
[7] | – | 3360
[8] | 9.56 | –
[9] | – | 14400
[10] | 0.334 | –

concentration in brain [µg/g], [6]
Settings | Female | Male
0.25 h, 10 mg/kg, iv, F344 | 2.99 | 6.43
0.25 h, 10 mg/kg, oral, F344 | 3.1 | 4.05
0.25 h, 30 mg/kg, oral, F344 | 10.1 | 17.1
0.5 h, 10 mg/kg, iv, F344 | 2.15 | 2.43
0.5 h, 10 mg/kg, oral, F344 | 2.13 | 2.65
0.5 h, 30 mg/kg, oral, F344 | 8.95 | 13.4
0.75 h, 10 mg/kg, oral, F344 | 1.45 | 1.2
0.75 h, 30 mg/kg, oral, F344 | 7.48 | 11.7
0.75 h, 100 mg/kg, oral, F344 | 65.8 | –
0.75 h, 100 mg/kg, oral, Harlan Sprague Dawley | 45.7 | 36.5
0.75 h, 400 mg/kg, oral, F344 | 162 | 216
0.75 h, 400 mg/kg, oral, Harlan Sprague Dawley | 125 | –
1 h, 10 mg/kg, iv, F344 | 0.731 | 1.48
1 h, 10 mg/kg, oral, F344 | 0.535 | 0.577
1 h, 30 mg/kg, oral, F344 | 7.62 | 7.05
1.5 h, 10 mg/kg, iv, F344 | 0.18 | 0.699
1.5 h, 10 mg/kg, oral, F344 | 0.237 | 0.282
1.5 h, 30 mg/kg, oral, F344 | 4.54 | 5.58
1.5 h, 100 mg/kg, oral, Harlan Sprague Dawley | 40.1 | 23.4
1.5 h, 400 mg/kg, oral, F344 | 99.2 | 187
1.5 h, 400 mg/kg, oral, Harlan Sprague Dawley | 146 | –
2 h, 10 mg/kg, iv, F344 | 0.0894 | 0.365
2 h, 10 mg/kg, oral, F344 | 0.0382 | 0.0659
2 h, 30 mg/kg, oral, F344 | 1.94 | 3.01
2 min, 10 mg/kg, iv, F344 | 7.7 | 10.5
2 min, 10 mg/kg, oral, F344 | 1.63 | 0.468
2 min, 30 mg/kg, oral, F344 | 7.36 | 1.74
2.5 h, 10 mg/kg, oral, F344 | 0.0268 | 0.039
3 h, 10 mg/kg, iv, F344 | 0.0263 | 0.0737
3 h, 30 mg/kg, oral, F344 | 0.0938 | 0.348
4 h, 100 mg/kg, oral, Harlan Sprague Dawley | 22.3 | 6.08
4 h, 400 mg/kg, oral, F344 | 83.8 | 94.8
4 h, 400 mg/kg, oral, Harlan Sprague Dawley | 84.7 | –
4 min, 10 mg/kg, oral, F344 | 3.04 | 1.76
4 min, 30 mg/kg, oral, F344 | 5.64 | 5.36
5 min, 10 mg/kg, iv, F344 | 7.33 | 4.41
5 min, 100 mg/kg, oral, F344 | 67.7 | 56.2
5 min, 100 mg/kg, oral, Harlan Sprague Dawley | 28.3 | 57
5 min, 400 mg/kg, oral, F344 | 181 | 222
5 min, 400 mg/kg, oral, Harlan Sprague Dawley | 224 | –
6 h, 100 mg/kg, oral, Harlan Sprague Dawley | 12.3 | 0.745
6 h, 400 mg/kg, oral, F344 | 56.2 | 71.4
6 h, 400 mg/kg, oral, Harlan Sprague Dawley | 53.5 | –
8 h, 100 mg/kg, oral, F344 | – | 0.016
8 h, 100 mg/kg, oral, Harlan Sprague Dawley | 0.239 | 0.0313
8 h, 400 mg/kg, oral, F344 | – | 34.5
8 h, 400 mg/kg, oral, Harlan Sprague Dawley | 44.2 | –
8 min, 10 mg/kg, oral, F344 | 2.99 | 3.84
8 min, 30 mg/kg, oral, F344 | 8.37 | 11.8
10 min, 10 mg/kg, iv, F344 | 5.89 | 5.7
10 min, 10 mg/kg, oral, F344 | 3.87 | 2.77
10 min, 30 mg/kg, oral, F344 | 8.63 | 12.8
10 min, 100 mg/kg, oral, Harlan Sprague Dawley | 24.9 | 29.9
10 min, 400 mg/kg, oral, F344 | 120 | 236
10 min, 400 mg/kg, oral, Harlan Sprague Dawley | 193 | –
12 h, 100 mg/kg, oral, Harlan Sprague Dawley | 0.00556 | –
12 h, 400 mg/kg, oral, F344 | 9.12 | 0.821
12 h, 400 mg/kg, oral, Harlan Sprague Dawley | 9.07 | –
20 min, 10 mg/kg, iv, F344 | 3.28 | 5.5
20 min, 10 mg/kg, oral, F344 | 2.68 | 4.57
20 min, 30 mg/kg, oral, F344 | 15.1 | 16.7
20 min, 100 mg/kg, oral, Harlan Sprague Dawley | 47.9 | 43.9
20 min, 400 mg/kg, oral, F344 | 165 | 140
20 min, 400 mg/kg, oral, Harlan Sprague Dawley | 182 | –

O=C(O)C(Cl)Br (stereo unspecified) [Bromochloroacetic acid]
Settings | concentration in plasma [ng/mL]
[11] | 5380

OCCC(F)(F)C(F)(F)C(F)(F)C(F)(F)C(F)(F)C(F)(F)C(F)(F)C(F)(F)F [Fluorotelomer alcohol 8+2]
[12]
Settings | concentration in plasma [ng/mL]
0.75 h | 1540
12 h | 917

c1ccncc1 [Pyridine]
Settings | concentration in plasma [ng/mL]
[13] | 85500
[14] | 90300

[15]
Settings | concentration in plasma [ng/mL]
4 h | 3470
5 min | 1980
